# From publication PMC5679641 (PLoS Pathogens, 2017)
# T1: p105, Nluc- or YFP-tagged (BRET) (UniProt P19838 1-968)
# T1 construct: also called NFκB1(p105/p50)
# T1 sequence (looked up): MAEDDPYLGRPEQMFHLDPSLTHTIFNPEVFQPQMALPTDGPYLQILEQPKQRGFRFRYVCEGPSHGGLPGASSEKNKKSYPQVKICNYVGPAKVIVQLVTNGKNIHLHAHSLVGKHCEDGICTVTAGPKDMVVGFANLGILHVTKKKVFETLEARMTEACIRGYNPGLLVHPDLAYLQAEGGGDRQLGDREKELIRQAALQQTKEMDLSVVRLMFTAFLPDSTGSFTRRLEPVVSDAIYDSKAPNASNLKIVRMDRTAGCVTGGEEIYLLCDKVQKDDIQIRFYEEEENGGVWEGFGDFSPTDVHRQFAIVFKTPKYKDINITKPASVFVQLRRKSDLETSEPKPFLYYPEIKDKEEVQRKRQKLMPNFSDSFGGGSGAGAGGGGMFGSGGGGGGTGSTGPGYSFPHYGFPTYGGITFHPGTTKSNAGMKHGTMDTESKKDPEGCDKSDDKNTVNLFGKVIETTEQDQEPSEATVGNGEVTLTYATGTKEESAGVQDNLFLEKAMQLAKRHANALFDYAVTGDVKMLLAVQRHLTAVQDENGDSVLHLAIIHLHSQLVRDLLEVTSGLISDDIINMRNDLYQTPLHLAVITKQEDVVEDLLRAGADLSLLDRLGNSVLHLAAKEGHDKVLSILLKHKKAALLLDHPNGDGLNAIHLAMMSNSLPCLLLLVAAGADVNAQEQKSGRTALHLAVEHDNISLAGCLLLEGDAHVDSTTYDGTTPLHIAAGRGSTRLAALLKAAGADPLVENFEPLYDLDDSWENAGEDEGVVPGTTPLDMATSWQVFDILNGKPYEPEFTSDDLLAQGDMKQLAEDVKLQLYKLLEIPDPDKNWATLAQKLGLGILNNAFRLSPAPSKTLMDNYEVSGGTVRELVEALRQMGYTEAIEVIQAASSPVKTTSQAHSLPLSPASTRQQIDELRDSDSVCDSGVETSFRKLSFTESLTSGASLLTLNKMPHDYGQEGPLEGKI
# B1: TPL2, Nluc- or YFP-tagged (BRET) (natural protein)
# chain: not shown
# notes: also called MAP3K8
# Biological target: T1, p105, Nluc- or YFP-tagged (BRET)
# Experiment: FRET or BRET
# Details: partners not purified
binder,measurement,value
B1,netBRET,< 0.05
